About 1,100 (0.39%) of roughly 280,000 compounds were called active. Inconclusive means that the source gave no clear call. Such entries were picked first, then a sample of the others. Calls come from the whole dose curve; as a rule, active = well fitted inhibition curve with a large enough effect; inconclusive = small, poorly fitted or top-dose-only effect, or effect the other way; inactive = flat fitted curve, though single readings scatter. No potency is given beside an inconclusive call; the fits are too rough.
These compounds were tested against Microtubule-associated protein tau (Homo sapiens) (UniProt P10636) (assay: qHTS for Inhibitors of Tau Fibril Formation, Fluorescence Polarization). Conditions: K18 P301L tau heparin fibrillization, Alexa594 FP, 6 h; series mostly up to 57.7 µM; activity, negative = inhibition: at the top concentration.
Summary of the method: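 Recombinant K18 P301L […], labeled with Alexa 594 at 0.24 uM over 15 uM unlabeled; heparin inducer 20 uM final; 37 C, 6 hr; FP endpoint.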
% is set by controls: 0 for no effect and ±100 for the full control effect; potency is the fitted concentration of half-maximal effect; tags give direction and shape of the fitted curve.
Note: nearly all actives have a fitted effect of over 55% in size.

Chain of UniProt P10636 (P10636 whole entry, looked up): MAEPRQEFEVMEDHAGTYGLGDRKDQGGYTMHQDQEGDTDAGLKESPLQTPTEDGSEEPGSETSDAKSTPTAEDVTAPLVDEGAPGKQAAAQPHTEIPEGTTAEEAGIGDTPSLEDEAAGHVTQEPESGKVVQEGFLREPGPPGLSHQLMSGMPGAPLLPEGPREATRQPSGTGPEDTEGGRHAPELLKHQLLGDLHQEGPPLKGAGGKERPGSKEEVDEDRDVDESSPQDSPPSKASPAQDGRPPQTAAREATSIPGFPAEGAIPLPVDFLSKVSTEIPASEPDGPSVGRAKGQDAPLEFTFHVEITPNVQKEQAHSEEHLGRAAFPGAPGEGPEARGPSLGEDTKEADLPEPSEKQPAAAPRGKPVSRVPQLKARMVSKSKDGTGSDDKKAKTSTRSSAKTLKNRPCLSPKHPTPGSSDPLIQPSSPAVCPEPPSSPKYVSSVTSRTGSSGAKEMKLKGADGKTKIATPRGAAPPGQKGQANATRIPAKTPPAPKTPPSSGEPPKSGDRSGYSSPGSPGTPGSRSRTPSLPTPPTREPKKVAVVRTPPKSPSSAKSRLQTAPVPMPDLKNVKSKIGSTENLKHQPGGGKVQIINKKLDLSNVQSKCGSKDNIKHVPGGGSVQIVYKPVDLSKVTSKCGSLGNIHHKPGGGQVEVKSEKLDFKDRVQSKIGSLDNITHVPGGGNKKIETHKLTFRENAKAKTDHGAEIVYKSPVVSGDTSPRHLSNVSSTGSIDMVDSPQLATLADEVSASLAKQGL

| SMILES | Potency | activity, negative = inhibition |
| --- | --- | --- |
| COc1ccc2[nH]c3c(NCCC4=CCCCC4)ncnc3c2c1 | inconclusive [activator, partial curve] | – |
| Cc1ccc(NC(=S)/C(=C(\[O-])c2ccc(Cl)s2)[n+]2cccc(CO)c2)cc1C | – | inactive: -4.76% |
| CCOc1ccc(CN(C)CC(=O)Nc2cc(C)c(C)cc2[N+](=O)[O-])cc1 | – | inactive: 8.92% |
| NS(=O)(=O)c1ccc(NC(=O)COc2ccc(C(=O)c3ccc(F)cc3)cc2)cc1 | inconclusive [inhibitor, single point] | – |
| Cc1cc(C)cc(NC(=O)C2CCCN2S(=O)(=O)c2cccc3nsnc23)c1 (stereo unspecified) | – | inactive: 8.88% |
| Cc1cccc(-c2noc(-c3ccc(N4CCN(C)CC4)c([N+](=O)[O-])c3)n2)c1 | – | inactive: -8.9% |
| COc1ccc(-c2noc(-c3ccccc3-c3ccccc3)n2)cc1 | inconclusive [inhibitor, single point] | – |
| Nc1nc(N)c(C=Nc2ccc(Br)cc2)c(Nc2ccc(Br)cc2)n1 | inconclusive [inhibitor, partial curve] | – |
| CC1(C)CC(=O)C(C=NCCCO)=C(O)C1 | – | inactive: 2.5% |
| CC(C)Cc1nnc(NC(=O)CCc2c[nH]c3ccccc23)s1 | inconclusive [activator, partial curve, poor fit] | – |
| Cc1ccccc1Nc1oc(-c2ccccc2)nc1CCc1ccccc1 | inconclusive [inhibitor, full curve] | – |
| Cc1ccc(C(=O)n2nc(C)c(S(=O)(=O)N3CCCCCC3)c2C)cc1 | – | inactive: 10.8% |
| O=[N+]([O-])c1cc(Br)c(O)c(/C=N/Nc2nc3ccccc3s2)c1 | inconclusive [activator, partial curve] | – |
| COc1cccc2sc(N(CCN(C)C)C(=O)/C=C/c3cccs3)nc12 | inconclusive [inhibitor, partial curve] | – |
| COc1ccc(-c2noc(-c3ccc(N4CCCCC4C)c([N+](=O)[O-])c3)n2)cc1OC (stereo unspecified) | – | inactive: -4.33% |
| C[C@@H]1C=C[C@](Cc2ccccc2)(C(=O)NCCc2c[nH]c3ccccc23)N1C(=O)c1ccccc1 | inconclusive [activator, single point] | – |
| O=C(N/N=C/c1cc(Br)ccc1O)Nc1ccccc1 | inconclusive [inhibitor, single point] | – |
| Cc1c(C(=O)OCC(=O)N(CCC#N)c2ccccc2)oc2c1ccc1ccccc12 | inconclusive [inhibitor, partial curve, poor fit] | – |
| CC(C)CN1C(=O)c2ccc(NC(=O)c3ccccc3F)cc2C1=O | – | inactive: 0.885% |
| COC(=O)c1cc(S(=O)(=O)NCC2CCN(Cc3ccc(C)cc3)CC2)c[nH]1 | inconclusive [inhibitor, single point] | – |
| CCOc1ccc(-n2c(SCC(=O)Nc3ccc(F)cc3)nc3c([nH]c4ccccc43)c2=O)cc1 | inconclusive [inhibitor, single point] | – |
| Cc1cc(N=Cc2c(O)n(-c3cccc(C(F)(F)F)c3)c(=O)c3ccccc23)no1 | inconclusive [activator, full curve, poor fit] | – |
| CC(C)n1c(SCC(=O)Nc2ccc(F)cc2)nc2c(oc3ccccc32)c1=O | – | inactive: -14.9% |
| Cc1cc(=O)[nH]c(SCC(=O)c2c(N)n(C)c(=O)n(C)c2=O)n1 | – | inactive: -2.34% |

| SMILES | Potency | activity, negative = inhibition |
| --- | --- | --- |
| COc1cccc(N(C(=O)c2cccs2)c2nc3ccccc3s2)c1 | inconclusive [inhibitor, single point] | – |
| COc1ccc(NC(=O)CSc2ccc(-c3ccccn3)nn2)cc1OC | – | inactive: -3.91% |
| COc1cc(SC#N)ccc1N=Cc1c(C)[nH]n(-c2ccc(C)cc2C)c1=O | inconclusive [inhibitor, partial curve] | – |
| CCSc1nnc(NC(=O)COc2ccc3ccccc3c2)s1 | – | inactive: -0.948% |
| CCOC(=O)c1c(NC(=O)c2cc(C)on2)sc(C)c1C | inconclusive [inhibitor, single point] | – |
| CNC(=O)c1ccc(Nc2nnc(-c3ccc(C)c(S(=O)(=O)N4CCCCC4)c3)c3ccccc23)cc1 | inconclusive [inhibitor, partial curve, poor fit] | – |
| COc1ccc(C2N(S(=O)(=O)c3ccccc3)CCN2S(=O)(=O)c2ccc(C)cc2)cc1 (stereo unspecified) | inconclusive [inhibitor, single point] | – |
| Cc1ccc(-n2ncc3c(N4CCN(C)CC4)ncnc32)cc1Cl | inconclusive [inhibitor, single point] | – |
| CCOc1ccc(NC(=O)CCS(=O)(=O)c2cccc3nonc23)cc1 | – | inactive: -12.9% |
| O=c1c(O)c(-c2ccc(O)cc2O)oc2cc(O)cc(O)c12 | inconclusive [activator, full curve, poor fit] | – |
| Cc1c(C(=O)N/N=C/c2ccc(Cl)cc2)[nH]c2ccc(Cl)cc12 | – | inactive: -13% |
| O=C(NS(=O)(=O)Oc1ccc(F)c(Cl)c1)OC[C@@H]1CCCN2CCCCC12 (stereo partly specified) | – | inactive: -0.407% |
| COC(=O)CCn1cnc2onc(-c3cc(F)cc(F)c3)c2c1=O | – | inactive: -3.64% |
| CC(C)Sc1ncc(Cl)c(C(=O)Nc2ccc(S(=O)(=O)N(C)c3ccccc3)cc2)n1 | – | inactive: -4.31% |
| O=C(N/N=C/c1ccc2ccccc2c1)c1ccc(COc2ccc3c(c2)CCC3)o1 | inconclusive [inhibitor, partial curve] | – |
| Nc1nc(-c2ccco2)nn1S(=O)(=O)c1ccc(Cl)cc1 | inconclusive [inhibitor, partial curve] | – |
| COc1cc(C(=O)OCCNC(=O)c2ccncc2)cc(OC)c1OC | inconclusive [inhibitor, single point] | – |
| O=C(c1ccc2c(c1)N(Cc1ccccc1F)C(=O)c1ccccc1S2=O)N1CCOCC1 (stereo unspecified) | inconclusive [inhibitor, full curve, poor fit] | – |
| S=C(NCC1COc2ccccc2O1)Nc1ccc(Br)cc1 (stereo unspecified) | inconclusive [inhibitor, partial curve] | – |
| N#C/C(=C(/O)CSc1ccccn1)c1nc2ccccc2s1 | – | inactive: 4.8% |
| CCOC(=O)C(NC(=O)NC1CCCCC1)(c1ccccc1)C(F)(F)F (stereo unspecified) | inconclusive [inhibitor, single point] | – |
| COc1ccc(NS(=O)(=O)c2cc(NC(=O)/C=C/c3cc(OC)c(OC)c(OC)c3)ccc2N2CCCCC2)cc1 | inconclusive [inhibitor, single point] | – |
| Cc1ccc(S(=O)(=O)Nc2ccc(S(=O)(=O)NC(C)(C)C)cc2)cc1 | – | inactive: -11.5% |
| CCN1C(=O)/C(=C/C=C2\N(CC)c3cc(S(=O)(=O)N(C)C)ccc3N2c2ccccc2)SC1=S | inconclusive [inhibitor, single point] | – |

| SMILES | Potency | activity, negative = inhibition |
| --- | --- | --- |
| O=C(NCC1CCCO1)c1c[nH]c2ccc(S(=O)(=O)Nc3cccc(C(F)(F)F)c3)cc2c1=O (stereo unspecified) | inconclusive [inhibitor, partial curve] | – |
| CCc1ccc(C(=O)c2cn(CC(=O)Nc3ccc(C)c(C)c3)c3ccccc3c2=O)cc1 | – | inactive: -17.7% |
| O=C(Nc1ccccc1)Nc1ccc(C(=O)N2CCOCC2)cc1 | – | inactive: -0.375% |
| O=C(Cc1ccc(Cl)cc1)Nc1cc(S(=O)(=O)N2CCOCC2)ccc1N1CCCC1 | – | inactive: 0.0979% |
| CCOc1ccc(N(C)S(=O)(=O)c2ccc(C)c(C(=O)OCC(=O)c3c[nH]c4ccccc34)c2)cc1 | active: 8.91 µM | – |
| Fc1ccc(NC(=S)Nc2cccc3cnccc23)cc1 | inconclusive [inhibitor, full curve] | – |
| COc1nc(-c2ccccc2)cc(-c2ccc3c(c2)OCO3)c1C#N | inconclusive [inhibitor, single point] | – |
| Cc1ccc(S(=O)(=O)c2cn(C)c3cc(N4CCCC(C)C4)c(F)cc3c2=O)c(C)c1 (stereo unspecified) | – | inactive: -10.6% |
| Cc1nc(N2CCCC2)ncc1C(=O)Nc1ccc(F)cc1F | – | inactive: 6.61% |
| COc1ccccc1OCC(=O)Nc1nc(-c2ccc(Br)cc2)ns1 | inconclusive [inhibitor, single point] | – |
| CCCCNC(=O)CSc1nnc(C)c2c(C)n(-c3ccccc3)nc12 | – | inactive: -3.27% |
| CCCCNC(=O)/C(=C\c1ccc([N+](=O)[O-])o1)NC(=O)c1ccccc1 | inconclusive [inhibitor, single point] | – |
| O=C(O)c1cc([N+](=O)[O-])ccc1NCc1ccccc1 | – | inactive: 7.38% |
| O=C(CCCn1c(SCC(=O)c2ccc(F)cc2)nc2ccccc2c1=O)NCc1ccco1 | inconclusive [inhibitor, partial curve] | – |
| Cc1cc(=O)n2[nH]c(C)c(-c3ccccc3)c2n1 | – | inactive: -0.44% |
| COc1ccc(C(=O)Nc2ccc(C)cc2C(=O)c2ccccc2)c(OC)c1 | inconclusive [inhibitor, single point] | – |
| COC(=O)Cc1csc(Nc2ccc(F)c(Cl)c2)n1 | inconclusive [activator, partial curve] | – |
| NS(=O)(=O)c1ccc(O)c(NC(=O)c2ccc([N+](=O)[O-])o2)c1 | active: 17.8 µM | – |
| CCCCCn1c(CCCNC(=O)c2ccc(Cl)cc2)nc2ccccc21 | – | inactive: -1.12% |
| CC(=O)Nc1ccc(-c2csc(NC(C)c3ccccc3)n2)cc1 (stereo unspecified) | – | inactive: 10.8% |
| Cc1ccccc1CCNC(=O)c1ccc(Cn2c(=O)c3cccn3c3cccnc32)cc1 | inconclusive [inhibitor, partial curve] | – |
| O=C(Cn1cc(/C=N/NC(=O)c2cccc(C(F)(F)F)c2)c2ccccc21)Nc1ccc(F)cc1 | inconclusive [activator, single point] | – |
| O=C(NCc1ccccc1Cl)c1ccccc1NC(=O)c1nsc2ccccc12 | inconclusive [inhibitor, full curve] | – |

— PubChem BioAssay AID1468 (National Center for Advancing Translational Sciences (NCATS), 2008)
